Test results as given in the supplement of paper PMC7826260.
Some of the results follow. Each Rep nickase domain was tested in vitro on the same pool of single strands at 3 µM enzyme and 37 °C for 1 h; the strands have 90 letters, of which the middle is given. Values are log2 of uncut reads against the no-enzyme pool; the lower, the more was cut; hits are not called. The scaling is to total reads; values above 0 arise when much of the pool is cut.

What was measured:
Assay in all cases: uncleaved DNA left, log2 of reads against the no-enzyme library (log2 ratio); higher = less cleavage (more negative = more Rep cleavage of the k-mer); sequences stand for … in CTCGTCCG…ACCGGAGA
[1] = tested on: T1, Rep nickase domain of Muscovy duck circovirus
T1 sequence (residues 1-111, tag not shown): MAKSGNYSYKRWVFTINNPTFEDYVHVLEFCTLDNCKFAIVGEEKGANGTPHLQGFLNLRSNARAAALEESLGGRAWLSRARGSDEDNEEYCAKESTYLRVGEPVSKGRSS
Protocol: (§1)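 A pool of 90-nt single-stranded DNAs with seven random bases just before the constant AC of the nick site (name = the seven bases) was cut by 3 µM recombinant His6-SUMO-tagged Rep nickase domain (300 nM DNA, 50 mM HEPES pH 8.0, 50 mM NaCl, 1 mM MnCl2, 1 h, 37 °C, three replicates). Uncut DNA was amplified and sequenced.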

[2] = tested on: T2, Rep nickase domain of banana bunchy top virus
T2 sequence (residues 1-94, tag not shown): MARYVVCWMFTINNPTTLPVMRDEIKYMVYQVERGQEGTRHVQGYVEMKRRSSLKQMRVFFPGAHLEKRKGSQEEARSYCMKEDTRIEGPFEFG
Protocol: as §1

[3] = tested on: T3, Rep nickase domain of cabbage leaf curl virus
T3 sequence (residues 1-116, tag not shown): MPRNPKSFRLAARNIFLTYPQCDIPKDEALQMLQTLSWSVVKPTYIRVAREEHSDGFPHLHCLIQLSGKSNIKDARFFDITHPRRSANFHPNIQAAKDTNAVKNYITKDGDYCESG
Protocol: as §1

[4] = tested on: T4, Rep nickase domain of chickpea chlorotic dwarf virus
T4 sequence (residues 1-124, tag not shown): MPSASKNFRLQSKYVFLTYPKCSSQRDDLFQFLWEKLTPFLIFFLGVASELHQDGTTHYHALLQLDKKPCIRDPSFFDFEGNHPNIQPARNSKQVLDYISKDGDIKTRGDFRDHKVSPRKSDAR
Protocol: as §1

[5] = tested on: T5, Rep nickase domain of faba bean necrotic yellows virus
T5 sequence (residues 1-98, tag not shown): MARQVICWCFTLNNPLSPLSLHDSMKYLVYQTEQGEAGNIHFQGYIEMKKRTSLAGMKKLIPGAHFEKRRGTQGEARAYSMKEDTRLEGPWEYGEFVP
Protocol: as §1

[6] = tested on: T6, Rep nickase domain of maize striate mosaic virus
T6 sequence (residues 1-117, tag not shown): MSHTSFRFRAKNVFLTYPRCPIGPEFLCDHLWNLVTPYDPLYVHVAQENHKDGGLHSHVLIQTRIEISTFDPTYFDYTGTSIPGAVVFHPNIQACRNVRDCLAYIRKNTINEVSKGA
Protocol: as §1

[7] = tested on: T7, Rep nickase domain of porcine circovirus 2
T7 sequence (residues 2-116, tag not shown): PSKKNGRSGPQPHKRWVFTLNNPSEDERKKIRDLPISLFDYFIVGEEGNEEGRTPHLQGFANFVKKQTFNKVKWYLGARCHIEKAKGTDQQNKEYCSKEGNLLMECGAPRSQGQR
Protocol: as §1

[8] = tested on: T8, Rep nickase domain of tomato yellow leaf curl virus
T8 sequence (residues 1-136, tag not shown): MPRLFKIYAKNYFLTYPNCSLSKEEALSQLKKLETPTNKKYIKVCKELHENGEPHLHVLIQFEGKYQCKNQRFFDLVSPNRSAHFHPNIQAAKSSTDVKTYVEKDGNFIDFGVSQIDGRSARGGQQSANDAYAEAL
Protocol: as §1

[9] = tested on: T9, Rep nickase domain of wheat dwarf virus
T9 sequence (residues 1-137, tag not shown): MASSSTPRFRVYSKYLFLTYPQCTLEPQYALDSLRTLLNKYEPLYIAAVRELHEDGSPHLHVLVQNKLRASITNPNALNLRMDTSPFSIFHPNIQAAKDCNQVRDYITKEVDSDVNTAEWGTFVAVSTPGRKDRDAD
Protocol: as §1

Row | Sequence | uncleaved DNA left (log2) [1] | uncleaved DNA left (log2) [2] | uncleaved DNA left (log2) [3] | uncleaved DNA left (log2) [4] | uncleaved DNA left (log2) [5] | uncleaved DNA left (log2) [6] | uncleaved DNA left (log2) [7] | uncleaved DNA left (log2) [8] | uncleaved DNA left (log2) [9]
1 | CGGGTCA | 0.0491 | 0.0975 | 0.795 | 1.54 | -0.00561 | 2.06 | 0.266 | 0.0866 | 0.232
2 | AGATCCG | 0.0142 | 0.0323 | -0.147 | 0.458 | 0.0187 | -0.648 | 0.16 | -0.117 | 0.0756
3 | GTACTAG | 0.0919 | 0.0329 | -0.173 | -0.24 | 0.049 | -0.6 | 0.0905 | 0.105 | 0.0678
4 | TACCAAA | 0.02 | 0.133 | -0.0213 | -1.19 | 0.0949 | -0.36 | -0.411 | 0.0456 | 0.096
5 | CGAACAA | 0.143 | 0.0805 | 0.118 | 0.1 | 0.0926 | -0.038 | 0.0722 | 0.0619 | 0.16
6 | TATTGTA | -3.14 | -2.11 | -0.503 | -2.2 | -0.0239 | -1.19 | -3.05 | 0.067 | -0.129
7 | CCAAACG | 0.00913 | -0.0264 | -0.957 | -0.0597 | -0.013 | -1.03 | 0.0395 | 0.00229 | -0.191
8 | CTTGGTC | -0.0954 | -0.135 | -0.0447 | -0.0968 | -0.182 | -0.967 | -0.0826 | -0.215 | -0.172
9 | TATAACC | -0.253 | -0.0929 | -0.382 | -2.15 | -0.104 | -0.596 | -1.1 | -0.0454 | -0.0866
10 | CGTATCG | 0.0355 | 0.0373 | -0.799 | -0.136 | 0.00251 | -1.02 | 0.123 | 0.0505 | -0.0862
11 | CATAATG | -0.0209 | -0.0278 | -0.71 | -0.812 | 0.0798 | -1.25 | 0.0248 | -0.104 | -0.227
12 | CTCCATT | -0.156 | 0.0027 | -0.0458 | -1.77 | -0.148 | -0.744 | -0.736 | -0.0162 | 0.00198
13 | GTAGACG | 0.0528 | 0.0882 | -0.217 | -0.0523 | 0.121 | -0.33 | 0.0697 | 0.102 | 0.061
14 | CCTTAAG | 0.104 | 0.179 | -0.704 | 0.0231 | 0.129 | -0.83 | 0.325 | 0.111 | -0.102
15 | TGCCCAG | -0.0513 | -0.00318 | -0.494 | -0.431 | 0.00785 | -0.967 | 0.0688 | 0.0886 | 0.0241
16 | AAACCCA | -0.0151 | 0.101 | 0.0175 | -1.47 | 0.217 | 0.0372 | -0.689 | 0.0997 | 0.00361
17 | CTAGTAG | 0.117 | 0.0266 | -0.681 | -0.577 | 0.0412 | -1.16 | 0.134 | 0.00852 | 0.00743
18 | GATTCGG | 0.0039 | 0.0381 | 0.467 | 1.31 | -0.0244 | 1.55 | 0.0919 | 0.00244 | 0.0518
19 | GACCGGT | -0.0536 | -0.0106 | 0.141 | 0.58 | -0.0848 | 0.688 | -0.0468 | -0.0937 | -0.076
20 | CGGGCAT | 0.0176 | 0.036 | 0.854 | 1.99 | 0.000569 | 2.21 | 0.191 | 0.0506 | 0.0326
21 | TTGCTCG | -0.177 | -0.158 | -1.07 | -0.285 | -0.0744 | -0.899 | -0.13 | -0.146 | -0.177
22 | ACTATGG | -0.00714 | -0.00488 | -0.577 | -0.398 | -0.0469 | -1.31 | 0.12 | -0.0286 | -0.109
23 | GGCAGGA | 0.0655 | 0.0209 | 0.589 | 1.06 | 0.00982 | 1.28 | 0.138 | 0.0838 | 0.104
24 | CATTTAA | -0.254 | -0.344 | -0.068 | -0.637 | -0.0159 | -0.916 | -0.459 | -0.0144 | -0.0776
25 | GCCCTGC | 0.052 | 0.185 | -0.166 | -0.00103 | 0.0376 | -0.58 | 0.194 | 0.108 | -0.0242
26 | GACTCCC | -0.313 | -0.154 | 0.128 | 0.124 | -0.0627 | 0.643 | -2.16 | 0.0526 | -0.0187
27 | GCTGCCA | -0.111 | 0.0698 | 0.0278 | 0.175 | -0.0623 | 0.325 | 0.0583 | -0.0411 | -0.0451
28 | CCTGGAA | -0.0488 | 0.0769 | 0.18 | 0.407 | -0.0247 | 0.195 | 0.045 | -0.099 | -0.00839
29 | CAATCTA | 0.0707 | 0.144 | -1.81 | -2.85 | 0.0143 | -1.07 | -0.599 | 0.189 | -0.463
30 | AGGGATA | 0.0823 | 0.0692 | 0.265 | 1.43 | 0.0468 | 1.65 | 0.122 | 0.0356 | 0.05
